Several values for one entry are separate records, joined by “and”; a condition that tells them apart may be missing. Identical values can stand only once. Screen size: about 48,000 compounds; about 1,200 (2.5%) were called active. Inconclusive results (about 2%) are left out.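 How the source made its calls: active means activation of at least 60% and not above a set upper limit (about 1 call in 100 departs from these limits); inconclusive means activation of 40% to 60%, or above that upper limit; inactive means activation under 40%.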 This is one part of the list. Some structures have more than one record in an assay (separate samples or runs), and their calls can disagree.
molecular target: Probable G-protein coupled receptor 32 (Homo sapiens) (UniProt O75388); test: qHTS for Agonists of Human Resolvin D1 Receptor DRV1; details: CHO-K1 GPR32 beta-arrestin PathHunter luminescence, 90 min; at 76.9 µM; stronger effect = higher value; zero percent set by DMSO-only wells
Summary of the method: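 Beta-arrestin recruitment read-out: luminescence from complemented beta-Gal in CHO-K1 GPR32 PathHunter cells, measured 1 h after detection reagent at ambient temperature following 90 min compound exposure at 37 °C; DMSO served as basal (EC0) control.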

UniProt O75388, sequence (O75388 whole entry, looked up): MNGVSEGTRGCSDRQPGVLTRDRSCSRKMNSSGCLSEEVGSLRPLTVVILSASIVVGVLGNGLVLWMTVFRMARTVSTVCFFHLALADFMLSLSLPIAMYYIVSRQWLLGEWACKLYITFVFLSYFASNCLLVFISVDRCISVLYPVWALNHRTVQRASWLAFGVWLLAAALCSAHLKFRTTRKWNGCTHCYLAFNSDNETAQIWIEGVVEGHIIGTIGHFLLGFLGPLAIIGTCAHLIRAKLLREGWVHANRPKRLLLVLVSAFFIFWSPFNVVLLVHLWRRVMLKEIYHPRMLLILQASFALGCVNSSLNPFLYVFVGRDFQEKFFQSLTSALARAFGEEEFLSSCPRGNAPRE

SMILES	activation
CC(C)(C)c1ccc(CSc2nc3c(c(=O)[nH]2)CCCC3)cc1	inactive: 44.8%
CCC1CCC(C(=O)NC(C(=O)NCCN(CC(C)C)CC(C)C)C(C)C)CC1 (centres undefined)	inactive: 5.26%
COc1ccccc1NC(=O)Cn1cnc2c(nc3n2CCCCC3)c1=O	inactive: -1.36%
CCOc1ccc(Nc2c(S(=O)(=O)c3ccc(Cl)cc3)cnc3ccc(OC)cc23)cc1	inactive: -42.7%
O=C(Nc1ccc(F)cc1)N1CCN(c2ccc3nnc(-c4ccc(F)cc4)n3n2)CC1	inactive: 36.8%
Cc1ccc(-n2nnc(-c3nsc(NC(=O)c4ccccc4C)n3)c2C)cc1Cl	inactive: -4.31%
COc1ccc(-c2c3c(=O)n(C)c(=O)n(C)c3cn2-c2cccc(N)c2)cc1	inactive: -17.6%
COc1ccc(-c2cn3c(n2)sc2cc(C(=O)NCc4cccs4)ccc23)cc1	inactive: -16.8%
CCOC(=O)CC(NC(=O)CCc1c(C)nc2c(-c3ccccc3)c(C)nn2c1C)c1ccc(C)cc1 (centres undefined)	inactive: 6.77%
Cc1ccc(CNC(=O)C2CCN(C(=O)c3ccc(-n4ccc5ccccc54)s3)CC2)cc1	inactive: 18.5%
COc1cccc(CN2C(=O)N(c3ccc(C)cc3)C(=O)C2CC(=O)Nc2cc(OC)cc(OC)c2)c1 (centres undefined)	inactive: -13.1%
COc1ccc(Cn2ccc3nc(C)c(C(=O)Nc4ccc(F)cc4)cc3c2=O)cc1	inactive: 5.45%
CCn1cc(C(=O)NCCc2ccc(Cl)cc2)c(=O)c2cc(S(=O)(=O)N3CCc4ccccc4C3)ccc21	inactive: 21.5%
COCCCNC(=O)c1[nH]c2cc(OC)ccc2c1Sc1ccc(C)cc1	inactive: -3.51%
Nc1nonc1-c1nc2ccccc2n1CC(=O)Nc1cccc(Cl)c1Cl	inactive: -1.57%
CCc1cccc(NC(=O)Cn2ccn3nc(-c4ccc(OC)c(OC)c4)cc3c2=O)c1	inactive: 17.8%
CN(Cc1ccco1)S(=O)(=O)c1nnc(NC(=O)c2ccccc2)s1	inactive: 18.1%
O=C(Nc1ccc(F)cc1)c1ccc2c(c1)NC(=O)c1ccccc1S2	active: 76%
Cc1cccc(-c2noc(-c3ccc(NCc4cccnc4)c([N+](=O)[O-])c3)n2)c1	inactive: 26%
COc1ccccc1N(CC(=O)Nc1cc(C)cc(C)c1)S(C)(=O)=O	inactive: 5.04%
O=C(Nc1nnc(S(=O)(=O)N2CCCCCC2)s1)c1ccccc1	inactive: 30.8%

SMILES	activation
CCc1ccc(NS(=O)(=O)c2c(-c3ccccc3)csc2C(=O)OC)cc1	inactive: -10.1%
Cc1cc(NCc2ccc(Cl)cc2)n2cnnc2n1	inactive: -1.54%
COC(=O)c1ccc(Oc2nc3c(c(=O)n(C)c(=O)n3C)n2Cc2ccc(Cl)c(Cl)c2)cc1	inactive: 20%
CCC(=O)Nc1cccc(OCc2cc(=O)n3cc(C)ccc3n2)c1	inactive: -1.99%
CCOc1ccc(NC(=O)c2nnn(-c3ccc(F)c(Cl)c3)c2C)cc1	inactive: 16.6%
Cc1ccccc1NC(=O)Cn1cc(S(=O)(=O)N2CCCC2)c(S(=O)(=O)N2CCCC2)c1	inactive: -11.4%
CC1=C(C(=O)Nc2ccccc2)C(c2ccccn2)n2nc(SCc3ccccc3Cl)nc2N1 (centres undefined)	inactive: 4.02%
COc1ccc(NC(=O)c2oc3ccccc3c2NC(=O)C23CC4CC(CC(C4)C2)C3)cc1	inactive: 2.02%
COc1ccc(OC)c(NC(=O)c2c(NCc3ccc(N(C)C)cc3)sc3c2CCCC3)c1	inactive: -15.6%
COc1cc(OC)cc(C(=O)Nc2ccc3c(c2)n(C)c(=O)c(=O)n3C)c1	inactive: -11%
Cc1ccc(OCc2cc(=O)n3c4c(sc3n2)CCCC4)cc1C	inactive: 4.63%
COc1ccc(S(=O)(=O)N(CC(=O)Nc2ccc3c(c2)OCO3)c2ccc(C)cc2)cc1	inactive: 5.25%
O=C(NCc1ccccc1Cl)c1ccc(NC(=O)N2CCSc3ccccc32)cc1	inactive: -20.2%
O=C(NCCCc1ccccc1)c1nn(-c2ccccc2)nc1CO	inactive: -13.3%
Cn1cc(S(=O)(=O)N2CCCCC2)cc1C(=O)Nc1ccc(OC(F)(F)F)cc1	inactive: 0.518%
O=C(Cn1cc(S(=O)(=O)c2ccccc2)c(=O)c2cc3c(cc21)OCO3)Nc1ccccc1	inactive: -3.44%
Cc1nc2nc(SCC(=O)NC3CCC(C)CC3)nn2c(C)c1Cc1ccccc1Cl (centres undefined)	inactive: -2.93%
CCc1ccc2occ(CC(=O)Nc3sc4c(c3C(=O)NCCOC)CCCC4)c2c1	inactive: -0.46%
N=C(N)c1ccc(OCCCOc2ccc(C(=N)N)cc2)cc1	inactive: -16.6%
Cc1ccc(S(=O)(=O)C(CNC(=O)c2ccc(C(F)(F)F)cc2)c2ccco2)cc1 (centres undefined)	inactive: -13%
CC(N)=NCCCC[C@@H](N)C(=O)O	inactive: -0.194%

SMILES	activation
Cc1noc(-c2ccc(-c3noc(-c4cccc(Cl)c4)n3)cc2)n1	inactive: -0.589%
Cc1nc2c(-c3ccccc3)c(C)nn2c(C)c1CCC(=O)NCc1ccccc1	inactive: 6.8%
CCn1cc2nc(SCc3cccc(C)c3)n(CCc3ccccc3)c(=O)c2n1	inactive: 2.74%
CCOC(=O)c1ccc(NC(=O)CCC(=O)N2CCSc3ccccc32)cc1	inactive: -8.67%
CCc1ccc2oc(-c3ccc(C)c(NC(=O)c4ccc(C#N)cc4F)c3)nc2c1	inactive: -27.8%
Cc1ccc(S(=O)(=O)n2nc(-c3ccco3)nc2NCc2ccc(N(C)C)cc2)cc1	inactive: -35.7%
COc1ccc(Nc2ncc(C(=O)N3CCN(c4ccccc4OC)CC3)c3ccccc23)cc1	inactive: -13.2%
CCOC(=O)c1ccc(NC(=O)CN2C(=O)c3cccnc3Sc3ccccc32)cc1	inactive: -5.05%
CCOc1ccc(C(=O)NCCc2sc(-c3ccc(F)cc3)nc2C)cc1	inactive: 15.5%
CO[C@@]1(NC(=O)CSCC#N)C(=O)N2C(C(=O)O)=C(CSc3nnnn3C)CS[C@@H]21	active: 64% and inactive: 6.25%
O=C(Cn1ncc2c3ccccc3n(Cc3cccc(Cl)c3)c2c1=O)NCCC1=CCCCC1	inactive: 0.249%
Cc1ccccc1Cn1c(=O)n(CCCCCC(=O)NCc2ccc3c(c2)OCO3)c(=O)c2sccc21	inactive: -25.6%
COc1ccc(NC(=O)CSc2ncc3c(n2)-c2ccccc2N(C)S3(=O)=O)cc1Cl	inactive: -44.5%
CCN(CC)c1ccc(CNS(=O)(=O)c2cc3c(cc2C)NC(=O)CO3)cc1	inactive: -8.53%
Cn1c(SCc2ccccc2Cl)nc(=O)c2c1NC(=O)CC2c1cc(F)ccc1F (centres undefined)	inactive: -3.29%
CCOc1ccc(NC(=O)Nc2c[nH]c(=O)[nH]c2=O)cc1	inactive: 14.3%
CCOC(=O)c1ccccc1NC(=O)Cn1c(=O)n(-c2ccc(CC)cc2)c(=O)c2c(C)c(C(=O)N(C)C)sc21	inactive: -7.87%
CCOc1ccccc1CNC(=O)c1ccc2c(c1)nc1n2CCC(C)C1 (centres undefined)	inactive: -3.8%
Cc1ccc(N2CC(NC(=O)c3ccccc3Br)CC2=O)cc1 (centres undefined)	inactive: -5.68%
O=C(Nc1ccc(F)c(Cl)c1)C1CCN(S(=O)(=O)c2ccc3c(c2)CCCN3C(=O)C2CCC2)CC1	inactive: 2.54%
Cc1ccc(CSc2cn(CCNC(=O)c3cccs3)c3ccccc23)cc1	inactive: 17.7%

SMILES	activation
CC(C)Sc1nc2sc3c(c2c(=O)n1-c1ccccc1)CCCC3	inactive: -28.2%
CC(=O)c1ccc(N2C(=O)Nc3ccccc3S2(=O)=O)cc1	inactive: 33.4%
Nc1ncc(S(=O)(=O)Nc2ccc(OC(F)(F)F)cc2)cn1	inactive: -21.7%
COC(=O)c1c(NC(=O)/C=C/c2ccc(OC)cc2)sc2c1CCC2	inactive: 4.25%
O=C1CCCc2c(O)cccc21	inactive: -3.16%
CC(C)c1cnc2c(c1SCC(=O)Nc1ccc(C(N)=O)cc1)c(=O)n(C)c(=O)n2C	inactive: -22%
CCOC(=O)Cn1c(-c2cccs2)cc2cc(Cl)ccc21	inactive: -11.5%
COc1ccc(CNC(=O)CSc2ncc3c(n2)-c2cc(Cl)ccc2N(C)S3(=O)=O)cc1	inactive: -7%
COc1ccc(N(C(=O)c2cccc(C)c2)S(=O)(=O)c2ccc3c(c2)n(C)c(=O)n3C)cc1	inactive: -18.9%
CCOC(=O)c1cc(OC(=O)c2ccccc2OC)n(-c2ccccc2)n1	inactive: -5.1%
O=C(Cn1c(=O)n(-c2ccccc2)c(=O)c2ccc(C(=O)NCc3ccc4c(c3)OCO4)cc21)Nc1ccc(F)c(Cl)c1	inactive: -0.211%
CN(CCCNC(=O)c1cc2c(=O)n(C)c3ccccc3c2s1)Cc1ccccc1	inactive: 12.2%
Cc1ccc(NC(=O)Nc2cccs2)c(C)c1	inactive: -16.5%
CCN1C(=O)c2ccccc2Sc2ccc(NC(=O)c3cccc(C)c3)cc21	inactive: -1.34%
CC(C)NC[C@H](O)COc1ccc(CC(N)=O)cc1	inactive: 17.9%
COc1ccc(CCNC(=O)c2ccc3c(c2)N(Cc2cccc(Cl)c2)C(=O)c2ccccc2S3=O)cc1OC (centres undefined)	inactive: -23.1%
Cc1cccc(CC(=O)NCCc2sc3nc(-c4ccc(F)cc4)nn3c2C)c1	inactive: -15.3%
COc1ccc(OCC(=O)N(Cc2ccc(C)o2)C2CCS(=O)(=O)C2)cc1 (centres undefined)	inactive: -22.7%
CCOc1ccc(CCNC(=O)c2ccc(-c3nc(CSc4ccccc4)c(C)o3)cc2)cc1	inactive: 11.4%
CCC(C)NC(=O)CSCc1nc(-c2ccc(C)cc2)oc1C (centres undefined)	inactive: -3.02%
O=C(c1ccccc1Br)N(Cc1ccccc1F)C1CCS(=O)(=O)C1 (centres undefined)	inactive: -8.32%

Reference: PubChem BioAssay AID1346428 (National Center for Advancing Translational Sciences (NCATS), 2018)
